Source: the supplement of paper PMC10126150
Values marked as one replicate rest on one cluster of the flow cell; about a third of the high ones do not repeat.

System: ATP
Test: switch fluorescence ratio, 500 uM ATP over buffer (Cy3 cluster intensity, sum of 5 cycles each) (fold (ratio)); higher = stronger signal-on switching upon ATP binding; sequences stand for … in TCGTCGGCAGCGTCAGATGTGTATAAGAGACAGTTTTTTTTTTTTTTTTTTTTTTTTT…TC
Details: aptamer strand: ATP DNA aptamer (quencher-CACCTGGGGGAGTATTGCGGAGGAAGG + anchor), 100 nM annealed; ATP concentration: 500 uM; one replicate
In short: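 For every switch-domain sequence, the fluorescence ratio is the mean of per-cluster values, each being summed target-cycle Cy3 intensity over summed buffer-cycle Cy3 intensity. Clusters outside 100-1000 RFU were excluded. On a modified Illumina MiSeq flow-cell, the Cy3-labelled switching-strand clusters were annealed to 100 nM quencher-labelled ATP aptamer, imaged in selection buffer and then after 15 min with 500 uM ATP at 22 °C. Five such cycles were run, with NaOH stripping and re-annealing between them.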
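Note: ATP exposure 15 min at 22 °C before imaging.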

Row | Sequence | switch fluorescence ratio
1 | GCGATTATGT | 0.984
2 | GACTCTTTAC | 1.53
3 | CCCAAGCCAG | 1
4 | GAAACATCAC | 1.22
5 | TGTTCTGGGT | 0.952
6 | CCAAGCAGTA | 1.82
7 | CAAGGGCTCA | 1.03
8 | GTGGCGATCT | 1
9 | CGACGGGTGC | 2.93
10 | GAATTCTCGC | 0.965
11 | TTGCGGTGGA | 1.06
12 | TAGTAATATA | 1.01
13 | TCTGGTAAGT | 1.02
14 | GTCCTTGGGT | 0.983
15 | ACGGCGCCCA | 1.04
16 | TATACACTGT | 1.03
17 | GCAGAGCCAG | 0.978
18 | TTGTTTTGGC | 0.986
19 | TGACAACGGT | 1.02
20 | ACCAACGCAG | 1.37
21 | AGCTTGTCAT | 0.97
22 | CAGAAAATAG | 1.06
23 | TTTTTCGATC | 0.949

Row | Sequence | switch fluorescence ratio
24 | CAGGTTTTTA | 0.962
25 | CTCGGTACAG | 0.993
26 | CGGGGCCATA | 0.996
27 | GAATATTAGG | 1.03
28 | CGAGAGGTAA | 0.973
29 | GTAGAAC | 0.98
30 | CATAACTGCA | 1.07
31 | TGACGACCAT | 1.07
32 | ATCCCATCAC | 1.1
33 | AGATATAGGT | 1.02
34 | AGACTGGAT | 1.01
35 | AGTCAGTTG | 1
36 | TTCTGATTAA | 1.01
37 | TCCCAGAAAC | 1.1
38 | GGGGCGCTTG | 1.01
39 | GGAACAGAGC | 0.965
40 | CGGAACGGCT | 1.01
41 | TCTTTTACTT | 0.975
42 | CAGTTATAGG | 1.05
43 | GGCGGTGTA | 0.999
44 | CGCGCAGTGT | 0.997
45 | GGGTTGCGAG | 0.993
46 | CACCCTTATG | 0.989

Row | Sequence | switch fluorescence ratio
47 | TGATCGCAGT | 0.981
48 | GGTGTACCGA | 1
49 | GACTAATGTT | 0.978
50 | AAGTACATGG | 1.18
51 | AGCCGGACTA | 1.2
52 | CGCTTAGTC | 1.13
53 | CATGGATCCT | 1.03
54 | ATCTAGGGGC | 1.07
55 | TAAACCTGCT | 1.18
56 | ATAGTTATTC | 0.974
57 | CTTGAGGGTT | 1.42
58 | TCGTATTGTA | 0.988
59 | GCCCCAGTTT | 1.08
60 | TGTAGGAGTC | 1.02
61 | CGAAGCTGTC | 1.26
62 | GTTGTACGTC | 0.935
63 | ATGTGAAGTG | 1.02
64 | ATACGAGGCT | 1.07
65 | GATCGGTCTT | 0.952
66 | CTCACTTGTG | 1
67 | ATTAATGG | 1
68 | TAGGAAGGGA | 1
69 | GAACTGCCAA | 1.07

Row | Sequence | switch fluorescence ratio
70 | ACTGTATGAG | 1.13
71 | TTATCCATCA | 1.03
72 | ACGGACGCGC | 1.29
73 | TCTTGTTATG | 0.999
74 | GACGCATTCT | 2.78
75 | TCGCCCCTAA | 1.03
76 | TGCGTAAAAG | 1.03
77 | TCTTCGTTC | 1.13
78 | TTGAATGGG | 0.998
79 | CGGGGAGCTC | 1
80 | AATGGAACGC | 0.987
81 | ATGCCCTTCC | 2.65
82 | CCTTCAAAAT | 1.07
83 | CTCCGGATGG | 2.3
84 | ATATCTGATT | 1.02
85 | GCCATATCTT | 1.09
86 | TAGGACTGTT | 0.997
87 | CGGTCTTAAA | 0.968
88 | ATGGAGCGCA | 1.06
89 | TCAAACCTGG | 1.17
90 | CACATGATAG | 1.04
91 | CCGGGGAGCC | 1.05
92 | GCGTGATCCG | 0.92

Row | Sequence | switch fluorescence ratio
93 | ATAAAGCTAA | 1.03
94 | TTTCAAGTAG | 1.06
95 | TGGCCGCACC | 3.1
96 | GGAACATCAC | 1
97 | GGTAACGCAA | 4.17
98 | GGCGTCCAAG | 1.03
99 | CGTGTTCCCA | 0.977
100 | AAACTCCACT | 1.15
101 | ACCTTGATGC | 1.05
102 | TGGTAGTATC | 0.991
103 | ACGGTGCGTG | 1.08
104 | CTAGTGACA | 1.05
105 | AATACAAAAC | 1.04
106 | GCGCGGATTC | 1.18
107 | ACATGTACG | 1.12
108 | ACTGGTTAAG | 0.979
109 | ACGCTCTAAC | 1.59
110 | TTGCTACCCA | 1.06
111 | TTATTTAGG | 0.996
112 | CCCGAATACG | 2.52
113 | GGGATGATGC | 0.962
114 | GGGTATGAAT | 0.961
115 | TATGACTCGA | 0.983

Row | Sequence | switch fluorescence ratio
116 | GGGTCTAAGT | 1.01
117 | CTTTCGGGCG | 0.992
118 | TTTACCTATG | 1.04
119 | AGATTGCTAA | 1
120 | GAATTATACT | 0.995
121 | CTTAGAATTT | 1
122 | AATAGGCGTT | 1.01
123 | GGCAGCCATG | 1.03
124 | CCTGCATGTA | 1.41
125 | GGGGAGTATA | 1.02
126 | CGTCAGAAGT | 1.01
127 | AGTAGCTGTA | 1.14
128 | ACCACCACGG | 1.16
129 | GGGTGAAACG | 0.938
130 | ACGAAGCGGC | 5.84
131 | TAATTTTAAC | 1.03
132 | TGTCTCAGTT | 0.96
133 | TGAATTTACG | 1.04
134 | TAATACCCGT | 1.01
135 | TGACGTTTC | 0.994
136 | GGTGCGCGTG | 0.998
137 | TGCGCAAGGT | 1.11
138 | CTTTAGAAAC | 0.982

Row | Sequence | switch fluorescence ratio
139 | GCAAGTAGCT | 0.981
140 | AGAGAAGCCA | 0.981
141 | TTACAAATAC | 1.31
142 | TAGTCAGTTC | 0.991
143 | ATTATCGTCG | 0.991
144 | TTGGCGGTCA | 1.04
145 | ACTCTGTGCC | 1.24
146 | CGAGCAGACC | 2.52
147 | TAAGGACTTT | 0.996
148 | TCGCTCATTC | 1.27
149 | AGGGACTACT | 1
150 | CCGGGAAGAG | 1.07
151 | ACGGAGTCAT | 1.26
152 | ACAAGAAAAA | 1.2
153 | ATACTTGTGA | 0.943
154 | TCAACGGAAA | 1.02
155 | CACTCCCCCT | 3.03
156 | TCTGGCGCTC | 1.16
157 | CTAAGCGAAG | 0.989
